Data as given in paper PMC10726135.
The list shows a part of the results. At the low end of the ranking the order means little. The protein was read in a cell extract, so binding may be indirect.

Target: T1, HNF4alpha8 (COS-7 nuclear extract) (UniProt P41235-5)
T1 sequence: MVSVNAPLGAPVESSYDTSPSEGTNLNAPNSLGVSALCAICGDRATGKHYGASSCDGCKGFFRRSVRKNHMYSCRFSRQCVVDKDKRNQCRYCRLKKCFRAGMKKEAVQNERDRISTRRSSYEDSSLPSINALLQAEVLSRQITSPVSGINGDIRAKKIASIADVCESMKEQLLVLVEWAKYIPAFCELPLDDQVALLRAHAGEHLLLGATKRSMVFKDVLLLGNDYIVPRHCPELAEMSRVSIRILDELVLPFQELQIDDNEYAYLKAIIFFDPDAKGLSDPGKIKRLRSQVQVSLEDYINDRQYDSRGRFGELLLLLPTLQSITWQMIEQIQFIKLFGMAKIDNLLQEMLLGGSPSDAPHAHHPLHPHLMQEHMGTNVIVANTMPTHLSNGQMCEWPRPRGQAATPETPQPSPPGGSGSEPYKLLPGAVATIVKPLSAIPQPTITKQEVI
Test: protein-binding microarray
Conditions: COS-7 nuclear extract on double-stranded Agilent 4x180k PBM; binding buffer, salt, pH and temperature not given; high values mean tight binding; double strand, one strand shown; sequences stand for … in …GCCTAGGGAGATTAGAGTATCGGTCGA

Sequence	binding signal (log2 normalized intensity)
AAAGGGCAAAGGTCAGCTCATTCCCTAGGG	6.71
AGGTCAAAAATGATGCCTGACTCAAGAAAG	-1.48
CAAAGTCCAGTAAGGACAGTTCCAGGAATG	2.11
GGGCAAAGTCCCCTTTCCTCATATTTTGCA	2.82
GTCTATCCTTATTTATCTTCCAGCGGGTGC	2.1
AGGGTGAAGTTTGGCAATTACCCAACAGAC	-1.19
GGACTTTGAAGCTCCAAGATAGGAATGTAC	2.77
ACCAAAAAGGCTAACTTACCCGCTTAAGAG	-1.34
TGAATATTTGCTTTCCAGTTCTTTGATAGC	0.316
TCCATTCCGCGAGGGTCCCCACCTTCCATT	1.08
GGGCAAAGGAATAAAATAGCTGCCTGTGTG	-1.39
GCGTAGCCCAAAGGTCAGTCTGCAGCTAAT	3.36
ACTTACATCCTCAGGTAAAGATCAACCATC	0.47
TTTCCTAAATATGTTCCAAAGTTCAACCAG	5.14
ACTTTGGCCGTGAAGCCGTCCTGTCCTGGA	0.978
CTGTGTATACAAAGATCAGTGTACTTAAAA	1.16
GGCTTAGCAGCTTGAGGCTCCGATAAACCC	-1.14
AACACAAAAAGCCTGAGCATCTTATCAGCA	-1.4
ACTTGTTCCGGATAGCCAAATAGCCTGGTC	-0.0286
GATAGCAAGGAGACATCGCTCCTCCCTTCT	-1.38
ACTGCTCCACCAGCGCGTGCCTTCCCTGCA	-1.26
AGGCAGTCTGTTGACCTTTGGCCAAGGGCA	8.19
AAAGTTCTGCTGAGTATCCAAAGGTCAGTG	6.24
GATCTGAACTCAAGCTCTTAAAGAAGCAGT	-0.93

Sequence	binding signal (log2 normalized intensity)
TAGGGACAGCTAGTCTAGACTTTGCTTTCT	3.82
GCTTATCTGGGAGGGGGAGGTTTTGTGTCT	0.884
GATTTGTAACCTGCAAAGAGCAAACTCCAG	-0.0423
TGTGCAGAGAGCAAACGAACCGGCAGCCGC	-1.22
AGTCCAAAGGTCTGAGAACCAAGAGAGCCA	1.62
CATACAATTCATGACTCTCTTATAGGTGTT	0.846
AGAGTTCAAGAAGGGCAGTTGACAGAGGAC	-0.67
TGAACCTAGATTCCAGGAAGAAAGATTGAA	-1.28
TGCTGGCTGGCGGCCTTTGGGTCCCTGGCC	1.05
GGTGCTGCATGGGCTGAGCCCAGCAAACCT	-1.35
GCAATGATCTTCATGAACTTCTGTCCACAG	0.847
CATTCCAACACAGGGTCAATGTCCCCTTAG	3.7
CACCCCCACGGTGCGCTGCCCCTCACTGCC	4.8
CTGCTTACATTTTGCTCTGTTGTGTCAAAG	1.74
GAAGGACATAAATGTGCCCAGATAAGAACT	-1.38
AACTGGACAAATTCCTGGGAACTGCGGACA	-1.32
AGGGGTTACTAGTGAGTTGGACTTTGGACC	11.6
GCTGGCCTCATGCCTTATCTACATAGTCCC	-1.2
AATAAGGCTGCGACCTGCTGGGCTGCATTC	-1.4
GCCACTCATAGAACTGTCGCAGAAAACACA	-1.29
GGTGTAGGGCAGAGGTCAGCCCACAGGTCA	3.64
CCTATGGGATCAAAGTGCGACAGGGAGATT	3.5
GGGTGGGGGTGGGGAGGATAGCAGCCCAGC	-1.41
AGTGACTTAATTATCAGAAGAGGAGCGATG	-0.748

Sequence	binding signal (log2 normalized intensity)
TTTAATACAAGTATTATCTTCCATTTCTGC	-1.15
CAGGCACAAGAATGGTCATTCTCTGTTGCA	-1.25
AGGCAAACAGATGAAGTACTGTTCTAAATT	-0.0831
GGTTTCTTGCTGAAGGTAGGACAGGGTGAT	1.11
AGACTTTTTTTTTCTTAATTGCCCTTTGCC	5.04
TGGCTGAGATCTGGAATTGGGCCAAGCACA	-1.09
AGGATAAAGTAAGGTGAAGCCCAGCAGCTC	-1.17
CTGCAGCATCTGAGCAGATGTAAACATCAT	-1.21
TCTCTGGGGGTCAGAAGTCCAACATTAGTA	4.97
GCCCCCGCAGACCCAGTCTTAGGGACTAAG	4.04
TCATGGGAATGAAAGGAGGTCATGTACATG	1.43
TGTTTGTTTTGAGATAGGGTCTTGCTTTGT	1.3
TTGAAATCTCAAATAGCTGGGTCTCACTCT	-0.338
AAGTAGAGGAATGCTGGTAAACACTGAGCT	-1.36
AGCAGCAAAGTCCTGGAAGAAACCCATTTG	-1.32
TACACATCAAAGTATGAGAGCCTGAGAACA	-1.25
TCAAAGGGAGATTCCTGACATTCAGTCTTT	0.158
TTCAGAGATGATAAGCCCTGAGTAGTTCTT	-1.19
TTCCCTACCCGGCAAAGAATTGTGAGTCCA	1.91
GGAGTATAGGAACATGAACTGAGCAGGCCT	-1.2
GCATGTCTCTGGTCGGGGAGGTGTTTATCT	1.06
TGTATAATGACACTAGCAGAAGAGACAGTC	-1.34
CTCTCACTGCAGAAACTCTGCAGTAACTGT	-0.939
CACTCAATGCAGCAGCATTGGACCCTCCCA	6.02

Sequence	binding signal (log2 normalized intensity)
TTTCATCAGTCCAATTCACAGAACTCCCTA	-0.295
ACACTCTCAATCTTTGCCCTCTTGGTATCA	2.9
AACACTCACTGGGAGAGAAAGCTAATTTAA	-1.31
GGGGAGGTCAACCAGGGAAATTACCCTCTA	0.0161
AGAGCTCAGATGAACTTTGCCTTAGGCCAT	4.78
AGACCTTTGTTCACTTGTTTATCTGCTGCC	2.48
GCTCCAGCCACTCATTCTTGGAATGCATTG	-1.03
AGTTGAGGTGAATACACAGCTAGCAGGTGA	-1.09
GACGTTATCAGCAGGAGGAGGAGCCAGTGA	-1.27
CCTGGCCCTCTGGGTTGGAACCCCGTTTCT	1.37
AAAGTTTGAGGAGAGTCAAAGGTTAATGAG	3.35
TGGTGCTGATGTGTTCGCCCCTAGGACACG	1.75
CCAGGCCAACCGGTTCCACAGTATCCCTTG	-1.37
GAGGATATCCCTCCGCCTCCCTCCCCCTTT	5.15
AATAGTACACATCAAAGTATGAGAGCCTGA	-1.32
ATTGGTTTACAGCACTTCATCCTTATGTAA	0.727
CCCCCACTGCCTGACCCCAAGTAATAGCCG	5.69
CACTTTGAGCAAGATAATGACTAAGGCAGG	-1.37
CCTGAAACTAGACCAAGAAGACTTTGGGGG	-1.39
GGACCCTGTTACCACACCACAGCGGGGCCT	-1.15
GCCTTTTGGCTAAAGTCCAAATTCCTTGGA	4.45
